Measurements reported in the supplement of paper PMC10338343.
± gives the standard deviation. The entries are a selection whose mix differs from that of the whole data set.

Test system: MIWI (PIWIL1) piRISC loaded with piRNA #1 (30 nt)
Test: pre-steady-state target cleavage rate (min^-1); MIWI and MILI are mouse PIWI proteins and EfPiwi is from a freshwater sponge; tags in brackets are library labels; higher = faster piRNA-guided slicing of the target
Details: guide: piRNA #1 5'p-UGAGGUAGUAGGUUGUAUAGUAUCCAGAGG; auxiliary factor: 500 nM mouse GTSF1
How it was run: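 The pre-steady-state cleavage rate came from a burst-and-steady-state fit to pooled data from three Cleave-'n-Seq trials, in which uncleaved targets were sequenced and normalised to depth and to weakly complementary targets. Each reaction held 0.1 nM transcribed, DNA-blocked target RNA library and 1 nM active affinity-purified piRISC carrying one synthetic guide, with or without 500 nM GTSF1 partner protein, in HEPES–potassium acetate buffer at 33 °C for 0–8 or 0–960 min. k3 was capped at 0.0001 min^-1.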

Going from GGAGACCUAUGAUAACUACCUACAACCUCA to GGAGACCAUACUAUAGAACCUACUACCACA, the “pre-steady-state target cleavage rate” value rises from less than 0.0001 to 0.335 ± 0.071.

GGAGACGUAUCUAUACAACCUACUACCUCA and GGAGACGUAACUAUACAACCUACUACCUCA are within error of each other in “pre-steady-state target cleavage rate” value: 1.32 ± 0.12 for the first, 1.39 ± 0.11 for the second.

First: GGAGACCAUACUAUACAUCGUACUACCUCA
Second: GGAGAGGAUACUAAACUACCUACUACCUCA
The “pre-steady-state target cleavage rate” value of the first is lower: 0.2 ± 0.023 for the first, 0.824 ± 0.059 for the second.

Going from GGUCUGGAUACUAUACAAGCUUCUACCUCA to GGUCUGGAUACUAUACAACGUACUACGUCA, the “pre-steady-state target cleavage rate” value rises from 0.163 ± 0.014 to 0.478 ± 0.074.

First: GGAGACCUAUCUAUACAACUACUACCUCA
Second: GCUCAGGAUACUAUACAACGUACUACCUCA
The “pre-steady-state target cleavage rate” value of the first is lower: 0.00254 ± 0.0024 for the first, 0.999 ± 0.052 for the second.

First: GGUCUCGAUACUAUAGAACCUACUACCUCA
Second: GGAGACCUUACCUAUACAACCUACUACCUCA
The “pre-steady-state target cleavage rate” value of the first is higher: 1.04 ± 0.071 for the first, 0.489 ± 0.043 for the second.

Going from GCUCUGGAUACUAUACAACCAACUAGCUCA to CCUCUGGAUACUGUACAACCUACUACCUCA, the “pre-steady-state target cleavage rate” value rises from 0.116 ± 0.018 to 0.782 ± 0.062.

Compared with GGAGACGAAACUAUACAACCUACUACCACA, GGACUGGAUUCUAUAGAACCUACUACCUCA is higher in “pre-steady-state target cleavage rate” value: 0.989 ± 0.083 for the first, 1.41 ± 0.09 for the second.

GGAGACCUAUGAAUACAACCUCACUACCUCA and GGAGACCUUACUAUACAACCAAGUACCUCA are within error of each other in “pre-steady-state target cleavage rate” value: 0.00824 ± 0.0026 for the first, 0.0056 ± 0.0029 for the second.

Compared with GGAGACCUAUCUAUACUACCUACUACCUGA, GGAGUGGAUACUAUACAACCUACUACCUAA is higher in “pre-steady-state target cleavage rate” value: 0.0141 ± 0.0038 for the first, 0.653 ± 0.051 for the second.

Going from GGAGAGGAUACUAUACUACCUACUUCCUCA to GGAGACCAUACUAUACUACCUACUACCUGA, the “pre-steady-state target cleavage rate” value rises from 0.216 ± 0.03 to 0.472 ± 0.04.

Compared with GGAGUGGAUACUACACAACCUACUACCUCA, GGAGUGGAAACUAUACAAGCUACUACCUCA is lower in “pre-steady-state target cleavage rate” value: 1.71 ± 0.097 for the first, 0.882 ± 0.046 for the second.

Going from GGAGUGGAUACAAUACAACCUACUUCCUCA to GGUCUGGGUACUAUACAACCUACUACCUCA, the “pre-steady-state target cleavage rate” value rises from 0.0692 ± 0.02 to 1.78 ± 0.12.

Going from GGUCUGGAUACUAUACAACCUACUUCCUCA to CCUCUGGAUACUAUUCAACGUACUACCUCA, the “pre-steady-state target cleavage rate” value rises from 0.0238 ± 0.009 to 0.952 ± 0.062.

Compared with GGAGACGAUACUUUACAACCUACUACCUGA, GGAGUGGAUAGUAUACAACGUACUACCUCA is lower in “pre-steady-state target cleavage rate” value: 0.496 ± 0.085 for the first, 0.2 ± 0.025 for the second.

Going from GGUCUGCAUACUAUACAACCUUCUACCUCA to GGAGACCUUACAAUUCAACCUACUACCUCA, the “pre-steady-state target cleavage rate” value falls from 0.639 ± 0.03 to 0.0147 ± 0.0037.

First: GGAGUGGAUACUAUACAAGCUACUACCUCA
Second: GGAGACCUAUGAUAUGUACCUUCUACCUCA
The “pre-steady-state target cleavage rate” value of the first is higher: 0.974 ± 0.04 for the first, less than 0.0001 for the second.

Compared with GCUCUGGAUACUAUACAAGCUACUUCCUCA, GGAGACCAUACUAUACAACCUACAACGUCA is lower in “pre-steady-state target cleavage rate” value: 0.651 ± 0.043 for the first, 0.365 ± 0.056 for the second.

Compared with GCUCUGGUUACUAUACAACCAACUACCUCA, GGAGACCUAUGUAUACCACCUACUACCUCA is lower in “pre-steady-state target cleavage rate” value: 0.132 ± 0.011 for the first, 0.0149 ± 0.0026 for the second.

Going from GGAGACCUUACUAUACAAGGUACUACCUCA to GGAGUGGAUACUAUACAACGUACUACCUGA, the “pre-steady-state target cleavage rate” value falls from 0.136 ± 0.023 to 0.0904 ± 0.019.
